# Experimental data taken from PubChem BioAssay AID624418 (National Center for Advancing Translational Sciences (NCATS), 2012).
# Out of some 410,000 compounds screened, about 530 (0.13%) were called active. The inconclusive results got no clear call from the source; some entries with a clear call stand among them for comparison. Calls come from the whole dose curve; as a rule, active = well fitted inhibition curve with a large enough effect; inconclusive = small, poorly fitted or top-dose-only effect, or another doubt; inactive = no such curve, though single readings can be large or run the other way. Potencies of inconclusive entries are doubtful fits and often do not repeat.
# Test: qHTS of GLP-1 Receptor Inverse Agonists: Cytotox Screen
# Conditions: HEK293 cAMP-luciferase reporter cells, luminescence, 24 h; activity change, negative = inhibition: at 38.3 µM (top of the series) unless noted
# How it was run: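 To flag toxic compounds, the library was rerun on cells for 24 hr at 37 deg C and 5% CO2. Viability-linked luminescence was captured 12 min after adding luciferase detection reagent.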
# % is set by controls: 0 for no effect and ±100 for the full control effect; potency is the fitted concentration of half-maximal effect.
Compound,Potency,"activity change, negative = inhibition"
COc1ccc(C2C(C#N)=C(N)N(c3ccccc3)C3=C2C(=O)CCC3)cc1Cn1cc([N+](=O)[O-])cn1 (stereo unspecified),"inconclusive: 10 µM [inhibitor, single point]",
COc1cccc(/C=C/C(=O)Nc2ccc3nc(N4CCN(C)CC4)cc(C)c3c2)c1OC,"inconclusive: 28.2 µM [inhibitor, single point]",
CC1CCC(NC(=O)C2CCC(CNS(=O)(=O)c3cccc4nsnc34)CC2)CC1 (stereo unspecified),"inconclusive: 28.2 µM [inhibitor, single point]",
CCOc1ccc(NC(=O)CSc2ncc3c(n2)-c2ccccc2N(Cc2ccccc2C)S3(=O)=O)cc1,,inactive: 1.91%
O=C1C(Cl)=C(O)C2(Cl)C(Cl)=C(Cl)C12Cl (stereo unspecified),"inconclusive: 31.6 µM [inhibitor, single point]",
O=C(CCN1CCN(c2ccccc2)CC1)N/N=C/c1ccccc1O,,inactive: -17.8%
COc1cc(Nc2c3ccccc3nc3ccccc23)cc(OC)c1OC,"inconclusive: 10 µM [inhibitor, single point]",
COc1cccc(CN(C)CC(O)COC(c2ccccc2)c2ccccc2C)c1 (stereo unspecified),"inconclusive: 28.2 µM [inhibitor, single point]",
O=C(/C=C\c1ccco1)Nc1nc(-c2ccc3ccccc3c2)cs1,,inactive: 12.8%
O=C(Cc1cccc(NC(=O)C2CCCN(C(=O)C3CCC3)C2)c1)Nc1cccc(C(=O)N2CCCC2)c1 (stereo unspecified),"inconclusive: 4.47 µM [inhibitor, full curve, poor fit]",
COc1ccc(CC(=O)Nc2ccc(C)c(S(=O)(=O)N3CCCCCC3)c2)cc1,"inconclusive: 4.47 µM [inhibitor, full curve, poor fit]",
NC(=O)CC(NC(=O)c1ccc(Br)cc1)c1ccc(NC2CCCCCCC2)c([N+](=O)[O-])c1 (stereo unspecified),"inconclusive: 28.2 µM [inhibitor, single point]",
COc1ccccc1N=Nc1ccc(N)c(C)c1,,inconclusive: -47% [inhibitor]
COCCCN=C1NN=C(c2cc(C)n(-c3ccccc3F)c2C)CS1,"inconclusive: 8.91 µM [inhibitor, partial curve, poor fit]",
Cc1nn(Cc2ccccc2Cl)c(C)c1C(=O)NCC(c1cccs1)N1CCOCC1 (stereo unspecified),"inconclusive: 2 µM [inhibitor, full curve]",
N#C/C(=C/c1cc[nH]c1)C(N)=S,,inactive: -5.48%
COc1ccc(C=C(c2nc3ccccc3s2)c2nc3ccccc3s2)cc1O,"inconclusive: 28.2 µM [inhibitor, single point]",
COc1ccc(C2c3[nH]c4ccccc4c3CCN2Cc2cccn2-c2ncccn2)cc1C (stereo unspecified),"inconclusive: 15.8 µM [inhibitor, single point]",
CC(C)NC(=O)Nc1ccc2c(c1)C(=O)N([C@H](C)CO)C[C@H](C)[C@@H](CN(C)Cc1ccc(C(F)(F)F)cc1)OCCCC[C@@H](C)O2,"inconclusive: 10 µM [inhibitor, single point]",
O=C(CN1C(=O)C(=O)N(CCC2=CCCCC2)C1=O)c1c[nH]c2ccccc12,"inconclusive: 28.2 µM [inhibitor, single point]",
N#C/C(C(=S)Nc1ccccc1)=C1/NN=C(N2CCOCC2)N1c1ccccc1,"inconclusive: 7.94 µM [inhibitor, partial curve, poor fit]",

Compound,Potency,"activity change, negative = inhibition"
CCOC(=O)N1CCN(C(=O)c2cccc(S(=O)(=O)Nc3ccc(Br)cc3)c2)CC1,"inconclusive: 28.2 µM [inhibitor, single point]",
CC1CC(C)(C)NC(=S)N1CC(=O)N(C)Cc1ccccc1 (stereo unspecified),,inactive: 14.5%
COc1ccc(-c2ccc3c(c2)S(=O)(=O)c2cccc(C(=O)NC4CC4)c2C3=O)cc1OC,,inactive: 0.827%
COc1ccc(CNC[C@@H](CCCCN(C)Cc2ccc(OC)cc2)N2C[C@H](c3ccccc3)N(CCc3ccc(Cl)c(Cl)c3)C(=O)C2=O)cc1,"inconclusive: 15.8 µM [inhibitor, single point]",
Oc1[nH]c2ccccc2c1N=NC(=S)NCC1CCCO1 (stereo unspecified),"inconclusive: 12.6 µM [inhibitor, single point]",
O=C(Nc1ccc(N2CCN(CCOc3ccc(Cl)cc3)CC2)c(C(=O)O)c1)c1ccc(F)cc1,,inactive: 4.28%
Cc1ccc2c(c1)NC(=O)C(CC(=O)NCCCN1CCN(c3cc(Cl)ccc3C)CC1)O2 (stereo unspecified),,inactive: -7.57%
Cc1cccc(N2CCN(C(=O)CCCn3c(=O)c4cccn4c4cccnc43)CC2)c1C,"inconclusive: 14.1 µM [inhibitor, single point]",
COc1cc(NCCCC(C)N)c2ncccc2c1 (stereo unspecified),"inconclusive: 12.6 µM [inhibitor, single point]",
CN(C)CC(O)COC(c1ccc(Cl)cc1)c1ccc(Cl)cc1 (stereo unspecified),"inconclusive: 28.2 µM [inhibitor, single point]",
COC(=O)c1ccc(-n2c(/C=C\c3cccc(Br)c3)nc3ccccc3c2=O)cc1,,inactive: -25.2%
CC(Nc1nc(N2CCCC2)nc2ccccc12)c1ccccc1 (stereo unspecified),"inconclusive: 7.94 µM [inhibitor, partial curve, poor fit]",
Cc1cc([N+](=O)[O-])ccc1NC(=S)NC(=O)Cc1ccccc1,,inactive: -13.7%
COc1ccc(N2C(=O)CSC2c2ccccc2F)c(OC)c1 (stereo unspecified),,inconclusive: -36.2% [inhibitor]
COc1cc2cc(C(c3nnnn3C3CCCC3)N(C)C3CCCCC3)c(=O)[nH]c2cc1OC (stereo unspecified),"inconclusive: 28.2 µM [inhibitor, single point]",
CCOC(=O)C1=C(C)NC(=O)NC1c1ccc(F)cc1 (stereo unspecified),"inconclusive: 28.2 µM [inhibitor, single point]",
N#CC(C(=S)Nc1ccccc1)c1nc2ccccc2[nH]1 (stereo unspecified),"inconclusive: 0.891 µM [inhibitor, full curve]",
Cc1nc2cc(NS(=O)(=O)c3c(C)c(C)cc(C)c3C)ccc2s1,"inconclusive: 28.2 µM [inhibitor, single point]",
CCOc1ccccc1NC(=O)CCCc1nc2ccccc2c(=O)[nH]1,"inconclusive: 31.6 µM [inhibitor, single point]",
CCN(CC)C(=O)c1sc2c(c1C)c(=O)n(-c1ccc(C)c(C)c1)c(=O)n2CC(=O)NCC1CCCO1 (stereo unspecified),,inactive: 2.65%
